Source: patent US8334239B2, “High affinity VEGF-receptor antagonists” (The Board of Regents of the University of Texas System, priority 2007, dated 2012)
Part of at least one peptide drawing is inferred or uncertain, most often the ends. At least one structure is not confirmed: it was looked up by name or label, or the drawing left a doubt. Positions of bridges follow the written chain, without caps; N, C: chain ends. Non-standard residues stand in square brackets, D forms with d. Residues, ends and D or L forms follow the SMILES beside them. Chains are numbered I, II in the order given. *: point of attachment. Fluorescein(5-Mal) = O=C1OC2(c3ccc(O)cc3Oc3cc(O)ccc32)c2ccc(N3C(=O)CC(*)C3=O)cc21; Gly(N-piperonyl) = O=C(O)CNCc1ccc2c(c1)OCO2; Nrpe = C[C@@H](NCC(=O)O)c1ccccc1; Nleu = CC(C)CNCC(=O)O; Nlys = NCCCCNCC(=O)O; Ahx = NCCCCCC(=O)O; βAla = NCCC(=O)O

The compounds below were run against VEGFR2 (Homo sapiens, UniProt P35968) (assay: ELISA-like binding assay, fluoresceinated peptoids on immobilized VEGFR2 extracellular domain). Details: ELISA-like assay, immobilized VEGFR2 extracellular domain.
Set-up: VEGFR2 extracellular domain (amino acids 1-764 fused to 6× histidine-tagged Fc of human IgG, via the peptide IEGRMD; R&D Systems); linker peptide IEGRMD (internal); Fc of human IgG (C); 6xHis (C); purchased R&D Systems
Description: ELISA based binding assay. White, clear bottom 96-well plates (Corning Inc.) were coated with of 1 μg/ml recombinant human VEGFR2 protein (R&D Systems) using the sensitizing buffer (0.621 g NaHCO3 & 0.275 g Na2CO3 dissolved on 100 ml of ddH2O, pH=9.5) overnight at 4° C. Washed with 3×200 μl of wash buffer 1×PBS with 0.05% Tween-20 and blocked with Startingblock blocking buffer (Pierce). Added 50 μl of serial dilutions of FITC labeled peptoids dissolved in Startingblock blocking buffer to each well & allowed to react for 1 h at room temperature. Washed with 5×200 μl of wash buffer 1×PBS with 0.05% Tween-20 and remaining fluorescence was measured at 520 nm using the plate reader.
The isolated peptoids are VEGFR2 ligands. Two of the ‘hits’ from this screen, GU40C and GU40E (see FIG. 2) were resynthesized, both as free compounds and with C-terminal Cys (for C-terminal fluorescein tagging via maleimide chemistry), cleaved from the beads and purified to apparent homogeneity by reverse phase HPLC. […] The association of these peptoids with VEGFR2 was evaluated using an ELISA-like assay. A commercially available fusion protein containing the VEGFR2 extracellular domain (amino acids 1-764 fused to 6× histidine-tagged Fc of human IgG, via the peptide IEGRMD; R&D Systems) was plated into 96-well plates and then mixed with various concentrations of […] Fluorescein (FITC)-labeled peptoid. After washing away unbound peptoid, the remaining fluorescence emission signal was measured at 520 nm. In this assay purified VEGFR2 protein was used instead of the whole PAE/KDR cells that over express VEGFR2, in order to confirm these compounds were binding only to the receptor.

UniProt P35968, sequence (P35968 20-764): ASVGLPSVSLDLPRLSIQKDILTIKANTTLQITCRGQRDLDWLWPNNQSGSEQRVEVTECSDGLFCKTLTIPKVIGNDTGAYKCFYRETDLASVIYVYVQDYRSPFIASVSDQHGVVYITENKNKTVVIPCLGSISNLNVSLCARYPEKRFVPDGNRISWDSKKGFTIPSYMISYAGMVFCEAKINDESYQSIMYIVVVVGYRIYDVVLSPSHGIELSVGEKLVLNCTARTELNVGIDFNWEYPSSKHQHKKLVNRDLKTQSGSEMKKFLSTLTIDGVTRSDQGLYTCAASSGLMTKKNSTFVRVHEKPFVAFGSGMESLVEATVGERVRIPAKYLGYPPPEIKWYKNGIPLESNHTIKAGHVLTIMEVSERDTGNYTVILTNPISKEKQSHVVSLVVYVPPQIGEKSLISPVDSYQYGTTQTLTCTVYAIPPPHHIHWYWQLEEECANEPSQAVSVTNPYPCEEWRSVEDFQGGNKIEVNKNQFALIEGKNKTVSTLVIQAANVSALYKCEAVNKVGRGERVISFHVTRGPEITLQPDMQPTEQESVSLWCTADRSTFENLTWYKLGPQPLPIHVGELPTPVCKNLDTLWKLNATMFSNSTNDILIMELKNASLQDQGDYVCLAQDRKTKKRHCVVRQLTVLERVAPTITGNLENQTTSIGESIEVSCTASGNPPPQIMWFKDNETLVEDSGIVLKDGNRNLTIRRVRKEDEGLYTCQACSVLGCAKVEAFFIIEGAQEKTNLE

SMILES | Kd
CC(C)CN(CC(=O)N(CCCCN)CC(=O)N(CC(=O)N(CC(=O)N(CCCCN)CC(=O)N(CC(=O)N(CCCCN)CC(=O)N(CCCCN)CC(=O)NCCCC[C@H](NC(=O)CN(CCCCN)C(=O)CN(CCCCN)C(=O)CN(CC(C)C)C(=O)CN(CCCCN)C(=O)CN(Cc1ccc2c(c1)OCO2)C(=O)CN(C(=O)CN(CCCCN)C(=O)CN(CC(C)C)C(=O)CNCCCCN)[C@H](C)c1ccccc1)C(=O)N[C@@H](CSC1CC(=O)N(c2ccc3c(c2)C(=O)OC32c3ccc(O)cc3Oc3cc(O)ccc32)C1=O)C(N)=O)CC(C)C)Cc1ccc2c(c1)OCO2)[C@H](C)c1ccccc1)C(=O)CNCCCCN (stereo partly shown) [GU40C1] (I: H-[Nlys][Nleu][Nlys][Nrpe][Gly(N-piperonyl)][Nlys][Nleu][Nlys][Nlys]KC(Fluorescein(5-Mal))-NH2 / II: H-[Nlys][Nleu][Nlys][Nrpe][Gly(N-piperonyl)][Nlys][Nleu][Nlys][Nlys]; amide I:10-II:C) | 85.7 ± 4 nM
CC(C)CN(CC(=O)N(CCCCN)CC(=O)N(CC(=O)N(CC(=O)N(CCCCN)CC(=O)N(CC(=O)N(CCCCN)CC(=O)N(CCCCN)CC(=O)NCCCC[C@H](NC(=O)CCNC(=O)CN(CCCCN)C(=O)CN(CCCCN)C(=O)CN(CC(C)C)C(=O)CN(CCCCN)C(=O)CN(Cc1ccc2c(c1)OCO2)C(=O)CN(C(=O)CN(CCCCN)C(=O)CN(CC(C)C)C(=O)CNCCCCN)[C@H](C)c1ccccc1)C(=O)N[C@@H](CSC1CC(=O)N(c2ccc3c(c2)C(=O)OC32c3ccc(O)cc3Oc3cc(O)ccc32)C1=O)C(N)=O)CC(C)C)Cc1ccc2c(c1)OCO2)[C@H](C)c1ccccc1)C(=O)CNCCCCN (stereo partly shown) [GU40C2] (I: H-[Nlys][Nleu][Nlys][Nrpe][Gly(N-piperonyl)][Nlys][Nleu][Nlys][Nlys][βAla]KC(Fluorescein(5-Mal))-NH2 / II: H-[Nlys][Nleu][Nlys][Nrpe][Gly(N-piperonyl)][Nlys][Nleu][Nlys][Nlys]; amide I:11-II:C; N-terminus assumed) | 269 ± 41.8 nM
CC(C)CN(CC(=O)N(CCCCN)CC(=O)N(CC(=O)N(CC(=O)N(CCCCN)CC(=O)N(CC(=O)N(CCCCN)CC(=O)N(CCCCN)CC(=O)NCCCCCC(=O)N[C@@H](CCCCNC(=O)CN(CCCCN)C(=O)CN(CCCCN)C(=O)CN(CC(C)C)C(=O)CN(CCCCN)C(=O)CN(Cc1ccc2c(c1)OCO2)C(=O)CN(C(=O)CN(CCCCN)C(=O)CN(CC(C)C)C(=O)CNCCCCN)[C@H](C)c1ccccc1)C(=O)N[C@@H](CSC1CC(=O)N(c2ccc3c(c2)C(=O)OC32c3ccc(O)cc3Oc3cc(O)ccc32)C1=O)C(N)=O)CC(C)C)Cc1ccc2c(c1)OCO2)[C@H](C)c1ccccc1)C(=O)CNCCCCN (stereo partly shown) [GU40C3] (I: H-[Nlys][Nleu][Nlys][Nrpe][Gly(N-piperonyl)][Nlys][Nleu][Nlys][Nlys][Ahx]KC(Fluorescein(5-Mal))-NH2 / II: H-[Nlys][Nleu][Nlys][Nrpe][Gly(N-piperonyl)][Nlys][Nleu][Nlys][Nlys]; amide I:11-II:C) | 60.6 ± 23.4 nM
CC(C)CN(CC(=O)N(CCCCN)CC(=O)N(CC(=O)N(CC(=O)N(CCCCN)CC(=O)N(CC(=O)N(CCCCN)CC(=O)N(CCCCN)CC(=O)NCCCCCC(=O)NCCCCCC(=O)N[C@@H](CCCCNC(=O)CN(CCCCN)C(=O)CN(CCCCN)C(=O)CN(CC(C)C)C(=O)CN(CCCCN)C(=O)CN(Cc1ccc2c(c1)OCO2)C(=O)CN(C(=O)CN(CCCCN)C(=O)CN(CC(C)C)C(=O)CNCCCCN)[C@H](C)c1ccccc1)C(=O)N[C@@H](CSC1CC(=O)N(c2ccc3c(c2)C(=O)OC32c3ccc(O)cc3Oc3cc(O)ccc32)C1=O)C(N)=O)CC(C)C)Cc1ccc2c(c1)OCO2)[C@H](C)c1ccccc1)C(=O)CNCCCCN (stereo partly shown) [GU40C5] (I: H-[Nlys][Nleu][Nlys][Nrpe][Gly(N-piperonyl)][Nlys][Nleu][Nlys][Nlys][Ahx][Ahx]KC(Fluorescein(5-Mal))-NH2 / II: H-[Nlys][Nleu][Nlys][Nrpe][Gly(N-piperonyl)][Nlys][Nleu][Nlys][Nlys]; amide I:12-II:C) | 234.2 ± 0.1 nM
